The source of these data is the antibiotic and cytotoxicity screens of Wong et al. (2023).

The list shows a part of the results.

This experiment deals with HSkMC (human skeletal muscle cells). The experiment is described as follows: cytotoxicity call (relative viability < 0.9). The note with it: 10 µM.
Turning to `C[C@H](CO)N1C[C@H](C)[C@H](CN(C)C(=O)Nc2ccc(C(C)(C)C)cc2)OCc2cnnn2CCCC1=O`, the cytotoxicity call is “inactive”.
With `C[C@H]1CN([C@@H](C)CO)C(=O)Cc2cc(NS(C)(=O)=O)ccc2O[C@@H]1CN(C)C(=O)Nc1ccc(F)cc1` the entry was “inactive”; with `C[C@@H]1CN([C@@H](C)CO)C(=O)Cc2cc(N(C)C)ccc2O[C@@H]1CN(C)S(=O)(=O)c1cn(C)cn1`, “inactive”; with `O=C(C[C@H]1CC[C@H]2[C@@H](COC[C@@H](O)CN2S(=O)(=O)c2ccc(Cl)cc2)O1)NCC1CCCCC1`, “inactive”.
As for `COc1ccc(NC(=O)Nc2cccc3c2O[C@@H](CN(C)CC2CCCCC2)[C@@H](C)CN([C@H](C)CO)C3=O)cc1`, the entry is “inactive”; as for `CC(C)(Sc1ccncc1-c1ccc(C#N)c2ccccc12)C(=O)O`, “inactive”.
`CC(=O)NCCCC[C@@H]1NC(=O)[C@H]2C[C@@H](C(=O)O)[C@@H](c3ccc(O)cc3)N2C1=O`: the cytotoxicity call is “inactive”.
`C[C@@H]1CCCCO[C@@H](CN(C)CC2CC2)[C@H](C)CN([C@@H](C)CO)C(=O)c2cc(NC(=O)Nc3ccc(C(F)(F)F)cc3)ccc2O1`: the cytotoxicity call was “inactive”.
As for `C=CCNC(=O)[C@H]1[C@@H]2C(=O)O[C@@H](c3ccccc3)[C@@H](c3ccccc3)N2[C@@H](c2ccc(OCCO)cc2)[C@]12C(=O)Nc1ccc(C#Cc3ccc(OC)cc3)cc12`, the entry is “inactive”; as for `CN1CCN(C(=O)C[C@@H]2CC[C@H]3[C@@H](COC[C@H](O)CN3CC3CCCC3)O2)CC1`, “inactive”.
As for `Cc1noc(C)c1S(=O)(=O)Nc1ccc2c(c1)C(=O)N([C@H](C)CO)C[C@H](C)[C@@H](CN(C)Cc1ccc(Cl)c(Cl)c1)OCCCC[C@H](C)O2`, the entry is “inactive”; as for `CCNC(=O)[C@@H]1[C@@H](CO)[C@@H]2Cn3c(ccc(-c4ccccc4OC)c3=O)[C@@H]2N1S(C)(=O)=O`, “inactive”; as for `O=c1[nH]c(=O)n(C2CC(O)C(CO)O2)cc1F` (centres undefined), “inactive”.
With `C[C@H](CO)N1C[C@H](C)[C@@H](CN(C)S(C)(=O)=O)Oc2ccc(NC(=O)Nc3ccc(C(F)(F)F)cc3)cc2C1=O` the entry was “inactive”; with `O=C(C[C@H]1CC[C@H](NS(=O)(=O)c2ccccc2F)[C@H](CO)O1)NCCCN1CCOCC1`, “inactive”; with `C[C@H]1CN([C@@H](C)CO)C(=O)c2cccc(NC(=O)Nc3ccc(F)cc3)c2O[C@@H]1CN(C)Cc1ccc(Oc2ccccc2)cc1`, “inactive”.
Take `Cc1ccc(S(=O)(=O)Nc2ccc3c(c2)CC(=O)N([C@H](C)CO)C[C@H](C)[C@@H](CN(C)C(=O)NC(C)C)O3)cc1`: the cytotoxicity call is “inactive”.
With `C[C@@H]1CN([C@H](C)CO)C(=O)c2c(c3ccccc3n2C)-c2ccccc2CO[C@H]1CN(C)C(=O)Nc1ccc2c(c1)OCO2` the entry was “inactive”; with `Cc1cccc(/C=C2\CS/C(=C\c3cccc(C)c3)C2=O)c1`, “inactive”; with `COc1ccccc1-c1ccc2c(c1)O[C@H](CN(C)S(=O)(=O)c1ccccc1)[C@@H](C)CN([C@@H](C)CO)S2(=O)=O`, “inactive”.
As to `C[C@H](CO)N1C[C@H](C)[C@@H](CN(C)Cc2cccc(C(=O)O)c2)OCc2ccccc2-c2c(n(C)c3ccccc23)C1=O`, the cytotoxicity call was “inactive”.
With `COc1ccc(S(=O)(=O)N(C)C[C@@H]2Oc3ccc(NC(=O)CCCN(C)C)cc3C(=O)N([C@@H](C)CO)C[C@@H]2C)cc1`, the cytotoxicity call was “inactive”.
As for `C[C@@H]1CCCCO[C@@H](CN(C)C(=O)Cc2ccccc2)[C@H](C)CN([C@H](C)CO)C(=O)c2cc(NC(=O)Cc3ccccc3)ccc2O1`, the cytotoxicity call is “inactive”.
As for `O=C(NCCCN1CCOCC1)[C@H]1[C@@H]2C=C[C@@]3(CN(Cc4cccs4)C(=O)[C@@H]13)O2`, the entry is “inactive”; as for `NC(=O)c1ncn([C@H]2O[C@@H](COP(=O)(O)O)[C@@H](O)[C@@H]2O)c1N`, “inactive”; as for `O=C(C1=C[C@@H](c2ccsc2)C[C@@H](OCCCCO)O1)N1CCN(Cc2ccc3c(c2)OCO3)CC1`, “inactive”.
With `C[C@H]1CN([C@@H](C)CO)C(=O)c2cc(NC(=O)c3ccncc3)ccc2O[C@@H]1CN(C)C(=O)Nc1ccc2c(c1)OCO2` the entry was “inactive”; with `CC=Cc1ccc2n(c1=O)C[C@H]1[C@H](CO)[C@@H](C(=O)NC3CCC3)[C@@H]2N1S(=O)(=O)c1cn(C)cn1`, “inactive”.
As for `COc1ccc(NC(=O)N(C)C[C@H]2Oc3ncc(C#CCN(C)C)cc3C(=O)N([C@@H](C)CO)C[C@H]2C)cc1`, the entry is “inactive”; as for `C[C@H]1CN([C@@H](C)CO)C(=O)c2cccc(NS(=O)(=O)c3cn(C)cn3)c2O[C@H]1CN(C)S(=O)(=O)c1cccs1`, “inactive”; as for `CCOC(=O)C1=C(C)N[C@@]2(O)C[C@@H]1[C@H]1CO[C@@H]2O1`, “inactive”.
For `C[C@@H]1CN([C@H](C)CO)C(=O)c2ccccc2-c2ccccc2CO[C@@H]1CN(C)Cc1ccc(-c2ccccc2)cc1`, the cytotoxicity call is “inactive”.
As for `CC(C)Oc1ccc(S(=O)(=O)N2CCN(c3ccc(-c4ncco4)c(OCC(=O)O)c3)CC2)cc1`, the cytotoxicity call is “inactive”.
On to `Cc1cc(C)c2c(c1)[C@@H](N(Cc1cc(C(F)(F)F)cc(C(F)(F)F)c1)c1nnn(C)n1)CCCN2C[C@H]1CC[C@H](C(=O)O)CC1`, for which the cytotoxicity call is “active”.
As for `C[C@H](CO)N1C[C@H](C)[C@@H](CN(C)Cc2ccc(C(F)(F)F)cc2)Oc2ccc(NC(=O)Nc3ccccc3)cc2CC1=O`, the cytotoxicity call is “inactive”.
As for `CC(C)NC(=O)N(C)C[C@H]1Oc2cc(C#Cc3cccc(F)c3)ccc2S(=O)(=O)N([C@H](C)CO)C[C@H]1C`, the entry is “inactive”; as for `Cc1ccc(S(=O)(=O)N(C)C[C@H]2OCCCC[C@@H](C)Oc3ccc(NC(=O)c4ccccc4)cc3C(=O)N([C@H](C)CO)C[C@@H]2C)cc1`, “inactive”.
For `C[C@H](CO)N1C[C@H](C)[C@H](CN(C)Cc2ccc(C(=O)O)cc2)Oc2c(NC(=O)Nc3cccc4ccccc34)cccc2C1=O`, the cytotoxicity call is “inactive”.
For the compound `NCc1nc2c([nH]1)CCCC2`, the cytotoxicity call is “inactive”.
